Assay [1] concerns the target T1, human EGFR (His-Avi Tag, Kactus Biosystem, EGF-HM401) (human, UniProt P00533 in part).
T1 construct: Bought soluble protein used as SPR analyte; also called hEGFR; not shown: His-Avi tag
Put plainly: SPR, Biacore T200; ratio of affinities. For orientation: In SPR one partner is held on a chip, and binding of the other changes the refractive index at the surface.

Assay [2] deals with T2, human HER3 (His-Avi Tag, Kactus Biosystem, HER-HM403) (human, UniProt P21860 in part).
T2 construct: Bought soluble protein used as SPR analyte; also called hHER3; not shown: His-Avi tag
The assay can be described thus: SPR, Biacore T200; ratio of affinities.

For assay [3], the target named is T1, human EGFR (His-Avi Tag, Kactus …). Put plainly: SPR, Biacore T200; antibody captured on ProA chip, antigen as analyte; 1:1 Langmuir fit.
The target of assay [4] is T2, human HER3 (His-Avi Tag, Kactus …). Described as above.

From patent EP4748861A1 (Duality Biologics (Suzhou) Co., Ltd., dated 2025) come the findings set out here.

B1: DBXT005-01 (bispecific antibody, human IgG1, kappa)
heavy 1: QVQLVESGGGVVQPGRSLRLSCAASGFTFSTYGMHWVRQAPGKGLEWVAVIWDDGSYKYYGDSVKGRFTISRDNSKNTLYLQMNSLRAEDTAVYYCARDGITMVRGVMKDYFDYWGQGTLVTVSS[human IgG1 constant region with changes not spelt out]
light: AIQLTQSPSSLSASVGDRVTITCRASQDISSALVWYQQKPGKAPKLLIYDASSLESGVPSRFSGSESGTDFTLTISSLQPEDFATYYCQQFNSYPLTFGGGTKVEIKRTVAAPSVFIFPPSDEQLKSGTASVVCLLNNFYPREAKVQWKVDNALQSGNSQESVTEQDSKDSTYSLSSTLTLSKADYEKHKVYACEVTHQGLSSPVTKSFNRGEC
heavy 2: DIQMTQSPSSLSASVGDRVTITCRASQDISNYLNWYQQKPGKAPKLLIYYTSILHSGVPSRFSGSGSGTDYTFTISSLQPEDIATYFCQQGDTLPPTFGGGTKLEIKGGGGSGGGGSGGGGSGGGGSQVQLQESGPGLVKPSETLSLTCTVSGYSITSAYYWNWIRQPFGKGLEWMGYISYDGRNNFNPSLKNRVTISRDTSKNQFSLKLSSVTAADTAVYYCARDGDYDYFDYWGQGTTVTVSS[human IgG1 Fc with changes not spelt out]
notes: no light chain 2; also called BsAb DBXT005-01; anti-EGFR/HER3 BsAb
In the case of B1, the “fold weaker affinity than the control antibody SI-1X6.4” value in assay [1] was approximately 15 fold. In assay [2], the “fold stronger affinity than the control antibody SI-1X6.4” value amounted to 25 fold. In addition, in assay [3], the Kd (usually the constant that tells how readily two partners part at equilibrium) is 21.6 nM, the koff (commonly the rate constant with which the complex falls apart) was found to be 0.00132 s⁻¹ and the kon (commonly a measure of how fast the partners come together) turned out to be 61300 M⁻¹ s⁻¹. Further, in assay [4], the Kd was 3.54 nM, the koff was 0.000616 s⁻¹ and the kon is 174000 M⁻¹ s⁻¹.
